Results from the BET-seq Pho4 binding data (Le et al. 2018).
Some of the results follow. These are noisy estimates, calculated here from bound and input reads.

Molecular target: T1, Pho4 (S. cerevisiae) (UniProt P07270)
T1 sequence: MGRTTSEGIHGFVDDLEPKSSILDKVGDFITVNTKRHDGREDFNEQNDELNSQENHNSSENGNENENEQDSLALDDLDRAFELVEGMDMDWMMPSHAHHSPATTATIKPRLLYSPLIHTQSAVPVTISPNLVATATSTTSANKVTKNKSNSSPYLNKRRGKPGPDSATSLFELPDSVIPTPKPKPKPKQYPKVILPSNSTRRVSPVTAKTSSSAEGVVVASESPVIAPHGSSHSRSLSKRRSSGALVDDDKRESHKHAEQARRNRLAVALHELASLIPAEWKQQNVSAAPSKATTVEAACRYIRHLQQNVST
Test: relative binding free energy (BET-seq); higher = weaker binding
Conditions: reference: library average

Row | Sequence | relative binding free energy [kcal/mol]
1 | GGGGTCACGTGGAACT | 0.19
2 | TAGGGCACGTGAGATT | 0.22
3 | ACGGACACGTGGGGTA | -0.1
4 | AGTAGCACGTGGCTGT | -0.13
5 | CATAGCACGTGCGGGG | -0.21
6 | GGGCTCACGTGGGTTA | 0.05
7 | TGGTGCACGTGCATTA | -0.1
8 | TTCGACACGTGATGGG | 0.17
9 | GAGGTCACGTGGTGAC | 0.07
10 | GTGGGCACGTGAGAGG | 0.19
11 | AGTTACACGTGTGCGG | 0.06
12 | GCGTTCACGTGGTGGT | 0.32
13 | GTTTTCACGTGGGTGT | 0.2
14 | TTAGTCACGTGAGCGG | 0.17
15 | TGTGACACGTGGGCGT | -0.18
16 | AGGTTCACGTGGCGGG | 0.23
17 | ATTGCCACGTGTGGGC | 0.05
18 | CAGTCCACGTGTTGTT | 0.12
19 | AGGTGCACGTGGCTTT | -0.08
20 | GGGGGCACGTGTTGGT | 0.02
21 | TGTTCCACGTGAGTGC | 0.24
22 | AGTTCCACGTGGCTGG | 0.06
23 | GTGAGCACGTGGTTAG | -0.13
24 | TGGGCCACGTGTTAGG | 0.02
25 | TCTAACACGTGGGTGG | -0.09

Row | Sequence | relative binding free energy [kcal/mol]
26 | TGAACCACGTGGTGTA | -0.05
27 | AGTAACACGTGAGTTT | 0.28
28 | CTTTGCACGTGTTGGA | 0
29 | CGAGGCACGTGGACGG | -0.17
30 | GTGAACACGTGAGGGG | 0.38
31 | GTTTGCACGTGCTGTT | 0.03
32 | CGTAGCACGTGTTGGA | -0.1
33 | GTGGCCACGTGGATGT | 0.03
34 | TACATCACGTGGTGAT | 0.09
35 | GTTCTCACGTGAGATT | 0.43
36 | CGTGACACGTGGTTTG | -0.01
37 | ATTGGCACGTGTCGAG | 0.04
38 | AGCTGCACGTGTGCGT | 0.05
39 | CGTTTCACGTGGGTGA | 0.17
40 | AAGGGCACGTGACTAG | 0.1
41 | GGGTTCACGTGAAGTG | 0.33
42 | TGTGCCACGTGGGGTC | -0.21
43 | AAGTTCACGTGTGTTA | 0.17
44 | GGGTTCACGTGGGAGT | 0.22
45 | TATCTCACGTGGTAAG | 0.2
46 | TTTGACACGTGAATTG | 0.3
47 | GTATCCACGTGGTTTG | 0.05
48 | AGTTGCACGTGAGTTG | 0.24
49 | CGATTCACGTGTTATG | 0.36
50 | GAATACACGTGTGGGG | 0.1

Row | Sequence | relative binding free energy [kcal/mol]
51 | GTTGGCACGTGTTTCT | -0.04
52 | GAAGTCACGTGAGTTT | 0.3
53 | CTGGCCACGTGGGGGA | -0.18
54 | GGGTTCACGTGGCTAT | 0.25
55 | GGTGCCACGTGTAGTA | -0.1
56 | TAGTACACGTGTGGTA | 0.12
57 | GCGGGCACGTGCTGAG | -0.09
58 | GTATTCACGTGGATGC | 0.17
59 | TGATGCACGTGGTGTG | -0.09
60 | GTGATCACGTGTCCGT | 0.22
61 | GGCATCACGTGGTGAT | 0.06
62 | GTATTCACGTGCGAGT | 0.31
63 | TTTTTCACGTGTAGTA | 0.24
64 | CTGGTCACGTGTAGGC | 0.01
65 | CTTTTCACGTGAGGAG | 0.51
66 | TGTGTCACGTGAGCAG | 0.2
67 | TGTAGCACGTGATATG | -0.01
68 | AATTACACGTGGTAGT | 0.02
69 | TAGGGCACGTGTTGCA | -0.29
70 | AGTGACACGTGTAGGT | -0.02
71 | CGGTTCACGTGAAGGT | 0.23
72 | TTGTCCACGTGTATTG | -0.05
73 | AGTCACACGTGGTTTG | -0.02
